Measurements: PubChem BioAssay (NCATS)
Where “and” joins values, the source holds several entries; their conditions need not be identical. Equal entries are not always repeated. Inconclusive means that the source gave no clear call. Such entries were picked first, then a sample of the others. A potency beside an inconclusive call is a rough fit, not a confirmed value. A structure can be active in one record and inactive in another. Calls of active or inactive are those of the source. The call rests on the fitted dose curve; in most records, active means well fitted curve in the direction sought with a large enough effect; inconclusive means small, poorly fitted or top-dose-only effect, or another doubt; inactive means no such curve, though single readings can be large; an effect the other way counts as inactive or inconclusive.

Experiments:
[1] = qHTS for Inhibitors of Plasmodium falciparum (DD2) proliferation (AID 504314);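 on activity, negative = inhibition: parasite DNA measured by SYBR Green fluorescence after red cell lysis; plate controls were DMSO vehicle for no effect and artemisinin wells for full effect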; details: P. falciparum Dd2 in erythrocytes, SYBR Green growth, 72 h; activity, negative = inhibition: at 6.11 µM (top of the series)
Summary of the method: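 SYBR Green DNA-fluorescence growth assay: infected RBCs at 0.3% parasitemia, 2.5% hematocrit, 72 h compound exposure, 37C, 5% CO2; overnight lysis with dye at RT; normalized to 0.29 uM artemisinin and vehicle.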

[2] = qHTS for Inhibitors of Plasmodium falciparum (GB4) proliferation (AID 504315); further: nearly all actives have a fitted effect of over 50% in size; details: P. falciparum GB4 in erythrocytes, SYBR Green DNA, 72 h; activity change, negative = inhibition: at 6.7 µM (top of the series)
Summary of the method: (§1)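 Parasite growth measured as SYBR Green DNA fluorescence (ex 485, em 535 nm) after overnight lysis following 72 h culture at 37 °C, 0.3% parasitemia, 2.5% hematocrit. Values normalized against DMSO and 0.29 uM artemisinin controls, with plate-stack correction.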

[3] = qHTS for Inhibitors of Plasmodium falciparum (7G8) proliferation (AID 504316); further: nearly all actives have a fitted effect of over 65% in size;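 on activity change, negative = inhibition: 0% = DMSO vehicle and -100% = 0.29 µM artemisinin full kill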; details: P. falciparum 7G8 in erythrocytes, SYBR Green DNA, 72 h; activity change, negative = inhibition: at 6.7 µM (top of the series)
Summary of the method: as §1

[4] = qHTS for Inhibitors of Plasmodium falciparum (HB3) proliferation (AID 504318); further: nearly all actives have a fitted effect of over 60% in size; details: P. falciparum HB3 in erythrocytes, SYBR Green DNA, 72 h; activity change, negative = inhibition: at 7.21 µM (top of the series)
Summary of the method: as §1

[5] = qHTS for Inhibitors of Plasmodium falciparum (CP250) proliferation (AID 504320);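 on activity change, negative = inhibition: plate controls were DMSO vehicle for no effect and 0.29 µM artemisinin control for full effect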; details: P. falciparum CP250 in erythrocytes, SYBR Green DNA, 72 h; series mostly up to 6.7 µM
Summary of the method: as §1

[6] = biological target: Vitamin D3 receptor (Homo sapiens) (UniProt P11473); assay: qHTS for Inhibitors of the vitamin D receptor (VDR): Hit Validation using a Fluorescein Assay (AID 602200); details: VDR-coactivator binding, fluorescein fluorescence polarization; series mostly up to 57.1 µM
Summary of the method: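 Fluorescence polarization: 1.5 uM VDR-LBD, 5 uM LG19078 and 5 nM fluorescein-labeled SRC2-3 peptide (final) with compounds, 2 h at room temperature. Read at Ex 495/Em 520 nm; peptide-only wells served as control.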

[7] = qHTS for Inhibitors of the vitamin D receptor (VDR): Hit Validation using a Texas Red Assay (AID 602201); details: VDR coregulator binding, Texas Red fluorescence polarization, agonist-bound VDR ligand-binding domain; series mostly up to 57.1 µM
Summary of the method: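 Fluorescence polarization with 1.5 uM VDR-LBD, LG19078 and 7 nM Texas Red (final). After 2 hours at ambient temperature, read at Ex 595 nm/Em 615 nm.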

[8] = biological target: Vitamin D3 receptor (Homo sapiens) (UniProt P11473); assay: qHTS for Inhibitors of the vitamin D receptor (VDR): Hit Validation using a Beta-Lactamase Assay (AID 602202); details: VDR beta-lactamase reporter cells, FRET ratio, cells co-treated with VDR agonist LG190178; series mostly up to 46.1 µM
Summary of the method: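 Stably transfected HEK293 cells expressing VDR-GAL4 DNA-binding domain fusion with UAS-driven beta-lactamase reporter, activated by agonist LG190178; compounds incubated 18 h, then FRET beta-lactam substrate 2 h; cleaved substrate read at 447 nm emission.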

[9] = qHTS for Inhibitors of the vitamin D receptor (VDR): Hit Validation using a Cytotoxicity Assay (AID 602204); details: cytotoxicity counter-screen, cell viability; series mostly up to 48.3 µM;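 further: cells co-treated with VDR agonist LG190178 at 300 nM; nearly all actives have a fitted effect of over 75% in size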
Summary of the method: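 First, 20,000 cells are dispensed per well. Next comes a 4 h incubation, then compound addition and an 18 h incubation. Finally, ATP-based luminescent reagent is added and plates are read after 30 min.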
Potency means the concentration at half of the fitted maximal effect; tags describe the fitted curve by direction and shape.

UniProt P11473, sequence (P11473 whole entry, looked up, the tested form may be a part): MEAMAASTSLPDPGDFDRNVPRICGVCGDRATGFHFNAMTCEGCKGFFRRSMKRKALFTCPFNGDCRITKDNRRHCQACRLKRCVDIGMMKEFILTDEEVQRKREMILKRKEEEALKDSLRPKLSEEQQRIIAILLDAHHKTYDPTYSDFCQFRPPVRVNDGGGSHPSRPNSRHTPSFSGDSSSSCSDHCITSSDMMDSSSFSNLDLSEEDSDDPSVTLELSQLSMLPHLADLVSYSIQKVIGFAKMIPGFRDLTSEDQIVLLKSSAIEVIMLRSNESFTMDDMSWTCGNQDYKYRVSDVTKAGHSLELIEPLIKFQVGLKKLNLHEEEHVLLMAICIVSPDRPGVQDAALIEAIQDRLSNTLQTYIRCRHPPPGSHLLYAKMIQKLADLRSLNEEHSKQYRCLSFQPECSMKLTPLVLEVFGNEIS

| Structure (SMILES) | activity, negative = inhibition [1] | Potency [2] | Potency [3] | Potency [4] | Potency [5] | Potency [1] | Potency [6] | Potency [7] | Potency [8] | Potency [9] |
| --- | --- | --- | --- | --- | --- | --- | --- | --- | --- | --- |
| COC(=O)C1=C(C(=O)OC)[C@@H]2N(Cc3ccccc3)c3ccccc3[C@@]23C[C@@H](C(=O)OC)N(S(=O)(=O)c2c(C)noc2C)C3=N1 | inactive: 0.193% [at 1.12 µM] | inconclusive: 3.79 µM [inhibitor, single point] | active: 1.69 µM | inconclusive: 2.13 µM [inhibitor, single point] | inconclusive: 4.26 µM [inhibitor, single point] |  |  |  |  |  |
| COc1ccc2c3c(c(=O)oc2c1)[C@H]1O[C@](CCCCN2C(=O)c4ccccc4C2=O)(Cc2cc(OC)c(OC)cc21)O3 |  | active: 2.69 µM | inconclusive: 1.69 µM [inhibitor, partial curve, poor fit] | active: 1.51 µM | inconclusive: 4.26 µM [inhibitor, partial curve, poor fit] | inconclusive: 1.89 µM [inhibitor, partial curve] |  |  |  |  |
| CC(C)(C)Nc1oc(-c2ccccc2)nc1C=Cc1ccccc1 |  | inconclusive: 1.69 µM [inhibitor, partial curve] | active: 1.51 µM | active: 1.69 µM | inconclusive: 3.38 µM [inhibitor, single point] | inconclusive: 3.78 µM [inhibitor, single point] |  |  |  |  |
| CCCCCCc1cc2cc(OC)c(OC)cc2c2c(C(=O)OC)c(C(=O)OC)c(C(=O)OC)n12 |  | inconclusive: 1.51 µM [inhibitor, partial curve] | active: 1.9 µM | inconclusive: 1.69 µM [inhibitor, partial curve] | inconclusive: 1.69 µM [inhibitor, partial curve, poor fit] | inconclusive: 1.5 µM [inhibitor, single point] |  |  |  |  |
| Cc1ccccc1Nc1oc(-c2ccccc2)nc1C(C)(C)C |  | inconclusive: 1.9 µM [inhibitor, single point] | active: 1.9 µM | active: 1.69 µM | inconclusive: 3.01 µM [inhibitor, single point] | inconclusive: 1.69 µM [inhibitor, single point] |  |  |  |  |
| COCOc1cc(OC)ccc1C(=O)C=Cc1ccc2c(c1)OCO2 |  | inconclusive: 1.69 µM [inhibitor, single point] and inconclusive: 4.26 µM [inhibitor, single point] | inconclusive: 1.51 µM [inhibitor, partial curve] and inconclusive: 1.9 µM [inhibitor, single point] | inconclusive: 1.69 µM [inhibitor, single point] and inconclusive: 4.26 µM [inhibitor, single point] | inconclusive: 1.69 µM [inhibitor, single point] and inconclusive: 2.13 µM [inhibitor, partial curve, poor fit] | inconclusive: 1.69 µM [inhibitor, partial curve, poor fit] and inconclusive: 4.24 µM [inhibitor, partial curve, poor fit] |  |  |  |  |
| C=CCNC(=O)N1C2=NC(C(=O)OC)=C(C(=O)OC)[C@@H]3N(C)c4ccccc4[C@]23C[C@H]1CO |  | active: 1.9 µM | active: 1.69 µM |  | inconclusive: 4.26 µM [inhibitor, single point] | inconclusive: 1.5 µM [inhibitor, partial curve] |  |  |  |  |
| COc1ccc([C@]23Cc4ccccc4[C@H](O2)c2c(c4ccc(OC)cc4oc2=O)O3)cc1 |  | active: 1.9 µM | active: 1.69 µM | inconclusive: 4.26 µM [inhibitor, single point] | inconclusive: 4.26 µM [inhibitor, single point] | inconclusive: 1.5 µM [inhibitor, partial curve] |  |  |  |  |
| COC(=O)C1=C(C)N(Cc2ccccc2)C(=NCCc2cccnc2)NC1c1ccccc1 (stereo unspecified) |  | inconclusive: 1.51 µM [inhibitor, partial curve] | inconclusive: 1.69 µM [inhibitor, single point] |  | inconclusive: 0.675 µM [inhibitor, partial curve, poor fit] | inconclusive: 2.12 µM [inhibitor, partial curve] |  |  |  |  |
| O=C1N(CC2CC2)c2cccc(Br)c2[C@@]12O[C@H](COc1ccccc1)CC1=CCCC12 (stereo partly specified) |  | inconclusive: 4.26 µM [inhibitor, single point] | inconclusive: 0.953 µM [inhibitor, partial curve] | inconclusive: 1.51 µM [inhibitor, single point] | inactive | inconclusive: 4.24 µM [inhibitor, single point] |  |  |  |  |
| CCOC(=O)C1=NO[C@@]2(C=C(Br)C(=O)[C@H]3O[C@H]32)C1 |  | inconclusive: 1.69 µM [inhibitor, partial curve] | inconclusive: 1.51 µM [inhibitor, single point] | inconclusive: 2.39 µM [inhibitor, single point] |  | inconclusive: 2.38 µM [inhibitor, single point] | inconclusive: 7080 nM [inhibitor, partial curve, poor fit] | inconclusive: 39800 nM [inhibitor, single point] | inconclusive: 29100 nM [inhibitor, single point] | inconclusive: 10600 nM [cytotoxic, partial curve] |
| COC(=O)CC1c2ccccc2C=C(C=Cc2ccc3c(c2)OCO3)N1C(=O)OC (stereo unspecified) |  | inconclusive: 4.26 µM [inhibitor, single point] | inconclusive: 1.51 µM [inhibitor, partial curve, poor fit] | active: 1.69 µM | inconclusive: 2.13 µM [inhibitor, partial curve, poor fit] | inconclusive: 2.67 µM [inhibitor, single point] |  |  |  |  |
| COc1ccc(-c2nc(-c3ccccc3)c(NC(C)(C)C)o2)cc1 |  | active: 1.69 µM | active: 1.51 µM and inactive | active: 2.13 µM | inconclusive: 4.26 µM [inhibitor, single point] | active: 1.69 µM |  |  |  |  |
| CCCCCCCc1cc2ccc(F)cc2c2c(C(=O)OC)c(C(=O)OC)c(C(=O)OC)n12 |  | inconclusive: 3.38 µM [inhibitor, single point] | inactive | inconclusive: 4.26 µM [inhibitor, single point] | inconclusive: 2.13 µM [inhibitor, partial curve, poor fit] | inconclusive: 4.24 µM [inhibitor, single point] |  |  |  |  |
| CCN1C(=NCc2cccc(Cl)c2)NC(c2cccc(C(F)(F)F)c2)C(C(=O)OC)=C1C (stereo unspecified) |  | inconclusive: 0.338 µM [inhibitor, partial curve, poor fit] | inconclusive: 3.38 µM [inhibitor, single point] | inconclusive: 3.01 µM [inhibitor, single point] | inconclusive: 1.69 µM [inhibitor, partial curve] | inconclusive: 0.753 µM [inhibitor, partial curve] |  |  |  |  |
| CC1=C[C@H]2c3ccccc3C[C@H]2CO[C@]12C(=O)N(Cc1ccc(Br)cc1)c1ccccc12 |  | inconclusive: 2.39 µM [inhibitor, single point] | inconclusive: 2.69 µM [inhibitor, single point] | inconclusive: 1.69 µM [inhibitor, single point] | inactive | inconclusive: 4.24 µM [inhibitor, partial curve, poor fit] |  |  |  |  |
| CC#CCN1c2ccccc2[C@]23C[C@@H](C(=O)OC)N(S(=O)(=O)c4ccc(C(F)(F)F)cc4)C2=NC(C(=O)OC)=C(C(=O)OC)[C@H]13 | inactive: 0.703% [at 1.12 µM] | active: 1.9 µM | inconclusive: 1.9 µM [inhibitor, single point] | inconclusive: 3.01 µM [inhibitor, single point] | inconclusive: 4.26 µM [inhibitor, single point] |  |  |  |  |  |
| CC(CCN1CCCc2nc(C)c(C)cc21)=NO[C@@H](C)CN1CCCCc2nc(C)c(C)cc21 |  | inconclusive: 4.26 µM [inhibitor, single point] | inconclusive: 1.69 µM [inhibitor, partial curve] | inconclusive: 1.69 µM [inhibitor, partial curve] | inconclusive: 2.13 µM [inhibitor, partial curve] | inconclusive: 1.34 µM [inhibitor, partial curve] |  |  |  |  |
| Cc1ccccc1Nc1oc(-c2ccccc2)nc1-c1cccs1 |  | inconclusive: 1.69 µM [inhibitor, single point] | inconclusive: 1.69 µM [inhibitor, single point] | inconclusive: 1.69 µM [inhibitor, single point] | inconclusive: 2.13 µM [inhibitor, partial curve, poor fit] | inconclusive: 4.24 µM [inhibitor, single point] |  |  |  |  |
| CCOC(=O)OC[C@H]1O[C@H](C#Cc2ccc(C(C)(C)C)cc2)C=C[C@H]1OC(=O)OCC |  | active: 1.69 µM | active: 2.13 µM | inconclusive: 2.33 µM [inhibitor, single point] | inconclusive: 4.26 µM [inhibitor, single point] | inconclusive: 3 µM [inhibitor, single point] |  |  |  |  |
